We go through 53 molecules from PubChem BioAssay AID1347073 (National Center for Advancing Translational Sciences (NCATS), 2019).

Hit rate of the full screen: of about 45,000 compounds, about 200 (0.44%) were called active. Not shown: some 7% with an inconclusive outcome. Calls come from the whole dose curve; as a rule, active = well fitted activation curve with a large enough effect; inconclusive = small, poorly fitted or top-dose-only effect; inactive = no such curve, though single readings can be large or run the other way. The list shows a part of the results.

This assay in a line: qHTS of TDP-43 Inhibitors: NCGC Sytravon Library Screen. Note: 0% is about no effect; nearly all actives have a fitted effect of over 55% in size. The settings on record: yeast TDP-43 toxicity rescue, BacTiter-Glo growth, 24 h; series mostly up to 46.1 µM; growth rescue (activation): at the top concentration. In outline: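 TDP-43-expressing yeast, pregrown in raffinose, seeded at OD600 0.02 in galactose medium with compound for 24 hr at 30 deg C. Growth read by BacTiter-Glo luminescence, so rescue of toxicity appears as activation.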
For orientation: qHTS replaces the single test concentration by a dilution series.
In the case of `Cc1cc(C)n(CC(=O)c2cccc(N)c2)n1`, the “growth rescue (activation)” value was inactive: 12.1%.
The result for `O=C(Nc1cccc2nsnc12)c1cccnc1` reads inactive: -13.6%; that for `COCCc1ccc(OC2(C)CCN(Cc3cccn3-c3nccs3)C2)cc1` (stereo not drawn), inactive: -4.72%.
As for `COCCCN=C1NN=C(c2cc(C)n(-c3ccccc3)c2C)CS1`, the “growth rescue (activation)” value was inactive: 1.54%.
Regarding `Cc1csc(NC(=O)c2ccc3nc[nH]c3c2)n1`, the “growth rescue (activation)” value is inactive: -1.43%.
As for `CC1(C)Oc2ccc(C(=O)Nc3ccccc3F)cc2N(CC(=O)N2CCOCC2)C1=O`, the “growth rescue (activation)” value is inactive: 8.55%.
The same measure for `CCCSc1ncc(Cl)c(C(=O)Nc2scc(-c3ccc(C)cc3)c2C(=O)OCC)n1`: inactive: 7.26%; for `CCOC(=O)CCC(NC(=O)CCCCC(=O)NC(CCC(=O)OCC)C(=O)OCC)C(=O)OCC` (stereo not drawn): inactive: 22.7%.
The same measure for `CN(C)c1nc(-c2cccnc2)nc(-c2ccc(Cl)cc2)c1C#N`: inactive: 7.56%; for `CC(=O)c1ccc(Nc2nc(C(N)C(C)C)cs2)cc1` (stereo not drawn): inactive: 7.85%.
The result for `COC(=O)c1c(NC(=O)C(C)C)sc(C(=O)N2CCOCC2)c1C` reads inactive: -9.21%; that for `CCCCN(C)C(=O)c1ccc2c(c1)N(Cc1ccc(F)cc1)C(=O)c1ccccc1S2(=O)=O`, inactive: 20.6%.
For the molecule `O=[N+]([O-])c1cccc(S(=O)(=O)N2CCN(S(=O)(=O)N3CCCCCC3)CC2)c1`, the “growth rescue (activation)” value was inactive: 18.8%.
On to `CCOCc1c(C(=O)NC2=Nc3ccccc3NC(CC)=C2C(=O)OCC)oc2ccccc12`, for which the “growth rescue (activation)” value is inactive: 10.4%.
The result for `Cc1oc(-c2cccs2)nc1CN1CCN(CC(C)C)C(CCO)C1` (stereo not drawn) reads inactive: 3.32%.
For the molecule `CCOc1ccc(S(=O)(=O)N2CCC(C(=O)N3CCCCCC3)CC2)cc1Cl`, the “growth rescue (activation)” value was inactive: 35.6%.
The result for `CCN(CCn1cccn1)C(=O)CCc1nnc(CCc2ccccc2OC)o1` reads inactive: -4.63%; that for `COc1cccc(C(=O)OCCCN(C)C)c1`, inactive: 9.91%; that for `COc1ccc(C2c3c(ncn(CCCO)c3=N)Oc3ccc4ccccc4c32)cc1` (stereo not drawn), inactive: 4.82%.
The result for `OC(CNCCc1ccccc1)COc1ccc(OCC(O)CNCCc2ccccc2)cc1` (stereo not drawn) reads inactive: 6.52%; that for `CCNC(=O)COc1ccc(F)cc1C(=O)c1cnn(-c2ccccc2)c1`, inactive: -0.11%; that for `CCN(CC(=O)NCc1cccs1)C(=O)CCOc1ccccc1`, inactive: -0.0675%.
The result for `COCCN(C(=O)CSc1nnc(-c2ccccc2C)n1C)c1c(N)n(Cc2ccccc2)c(=O)[nH]c1=O` reads inactive: 10.9%; that for `Cc1c(-c2ccccc2)nc2ccccc2c1C(=O)OCC(=O)Nc1ncc(C(F)(F)F)cc1Cl`, inactive: 5.36%; that for `O=C(CC1SC(N2CCCCC2)=NC1=O)Nc1cccc(C(=O)NCc2ccccc2)c1` (stereo not drawn), inactive: 3.12%.
As to `Cc1c(C(=O)Nc2ccccc2)sc2nc[nH]c(=O)c12`, the “growth rescue (activation)” value was inactive: 17.9%.
The same measure for `Cc1ccc(NC(=S)N(Cc2ccco2)C2CCN(C(C)C)CC2)cc1`: inactive: -23.9%; for `COC(=O)c1ccccc1NC(=O)COC(=O)c1ccccc1N=Nc1ccc(N(C)C)cc1`: inactive: -14.8%.
As to `CC1(C(=O)NC2CCCCC2)Cc2ccccc2C(=O)N1Cc1ccc(F)cc1` (stereo not drawn), the “growth rescue (activation)” value is inactive: 1.35%.
The result for `CN(C)S(=O)(=O)c1ccc(NC(=O)COc2ncnc3c2cnn3-c2ccccc2)cc1` reads inactive: 7.76%.
The result for `Cc1cc(N)n(-c2ccc(C)c(C)c2)n1` reads inactive: -4.3%.
The result for `CCOC(=O)N1CCN(C(=O)COc2ccc(Cl)c(C)c2)CC1` reads inactive: 12.5%.
As for `Cc1cc(S(=O)(=O)NCC(C)C)ccc1OCC(=O)NCc1ccco1`, the “growth rescue (activation)” value is inactive: 10.5%.
With `O=C(CCc1ccccc1)NC(=S)Nc1ccc2c(c1)C(=O)OC2`, the “growth rescue (activation)” value is inactive: 6.79%.
The result for `CN(C(=O)CSc1nc2c(c(=O)[nH]1)CCC2)c1ccccc1` reads inactive: 0.89%.
The same measure for `O=C(c1ccc([N+](=O)[O-])cc1)N1CCN(C(=O)c2cccs2)CC1`: inactive: -0.729%.
The result for `O=C(COc1ccc(Cl)cc1)NCc1nnc(SCC(=O)NC2CCCC2)o1` reads inactive: -4.93%; that for `CCC(C(=O)OCC(=O)Nc1ccccc1-c1ccccc1)c1ccccc1` (stereo not drawn), inactive: 8.96%.
In the case of `O=[N+]([O-])c1cccc(-c2nnc3n2CCCCC3)c1`, the “growth rescue (activation)” value was inactive: -13.9%.
The same measure for `Oc1ccc(Br)cc1C=Nc1cccn2cc(-c3ccccc3)nc12`: inactive: -9.13%; for `NC(=O)CSc1nnc(-c2cnccn2)n1-c1ccccc1`: inactive: -7.79%.
Turning to `O=C(COC(=O)CCC(=O)c1ccc(Cl)cc1)NCc1ccc(F)cc1`, the “growth rescue (activation)” value was inactive: 3.14%.
As to `Cc1ccc(O)c(CCc2ccc(O)cc2)n1`, the “growth rescue (activation)” value is inactive: -17%.
As for `O=C(NCCN1CCOCC1)c1cc(-c2cccc(O)c2)on1`, the “growth rescue (activation)” value was inactive: 8.33%.
The same measure for `COc1cc(CNCc2ccccn2)ccc1OCc1ccc(Cl)cc1`: inactive: 3.22%; for `CC(C)Nc1nnc(SCc2cc(=O)n3ccsc3n2)s1`: inactive: 15.7%; for `CC(C)CCn1c(=O)c(C(=O)N/N=C/c2cccc(F)c2)c(O)c2ccccc21`: inactive: -15.9%.
The same measure for `COCCNC(=O)C(=O)NCCN1CCNCC1`: inactive: 5.8%; for `Cc1nc(C(F)(F)F)ccc1C(=O)N1CCC1(C)C(=O)NS(=O)(=O)c1ccccc1` (stereo not drawn): inactive: 14%; for `Cc1ccc(NC(=O)c2ccc(S(=O)(=O)NCc3cccnc3)cc2)cc1C`: inactive: 12.7%.
The same measure for `CCCNC(=O)c1cc(C2CCCN(C(=O)C3CCCCC3)C2)on1` (stereo not drawn): inactive: 14.8%.
For the molecule `COc1ccc(NC(=O)N2CCCC(C(=O)Nc3cccc(C)c3C)C2)cc1` (stereo not drawn), the “growth rescue (activation)” value is inactive: -6.88%.
Consider `CC(=O)c1cccc(S(=O)(=O)NCC(C)(C)N2CCOCC2)c1`, for which the “growth rescue (activation)” value was inactive: 1.29%.
